Measured values published in the supplement of paper PMC12645437, “Orthogonal IMiD-Degron Pairs Induce Selective Protein Degradation in Cells” (ACS Chemical Biology, 2025).
Some of the results follow.

Molecular target: no compound (DMSO)
Assay: log2 fold change of degron read counts, EGFP-low vs EGFP+ sorted cells; higher = lower degron-EGFP level without compound (poor expression or instability)
Details: compound: DMSO control; 18 h
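Also: jurkat cells carrying a lentiviral library of mutant zinc finger degrons fused to EGFP plus mCherry, mCherry+ cells FACS sorted, degron abundance counted by next-generation sequencing.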

Row | Sequence | log2 fold change of degron read counts
1 | FFCEVCGAKFTQKGNLLRHIKL | -1.86
2 | FNCPICGRTFTQKGNLLRHIKL | -0.244
3 | FACEICGAFFTQKGNLLRHIKL | -0.563
4 | FVCPICGAVFTQKGNLLRHIKL | 0.0564
5 | FSCPQCGAQFTQKGNLLRHIKL | -0.904
6 | FGCPQCGAVFTQKGNLLRHIKL | 0.623
7 | FECSVCGHTFTQKGNLLRHIKL | -1.75
8 | FACEVCGAWFTQKGNLLRHIKL | -0.0912
9 | FGCEICGAPFTQKGNLLRHIKL | -0.536
10 | FTCDQCGADFTQKGNLLRHIKL | -2.36
11 | LHCPICGFLCTQKGNLLRHIKL | 1.53
12 | FDCEVCGAAFTQKGNLLRHIKL | -2.21
13 | FFCEICGRCFTQKGNLLRHIKL | -0.0871
14 | FCCNICGAEFTQKGNLLRHIKL | -1.33
15 | FTCPQCGAAFTQKGNLLRHIKL | -0.852
16 | FNCDICGAVFTQKGNLLRHIKL | -1.65
17 | FMCPICGHSFTQKGNLLRHIKL | 0.195
18 | FSCEQCGALFTQKGNLLRHIKL | -1.95
19 | FQCEICGHHFTQKGNLLRHIKL | -2.07
20 | FHCNVCGAWFTQKGNLLRHIKL | 0.611
21 | FMCPICGRDFTQKGNLLRHIKL | -1.2
22 | FVCEICGHEFTQKGNLLRHIKL | -2.69
23 | LRCNQCGFTCTQKGNLLRHIKL | -0.0806
24 | FTCNQCGREFTQKGNLLRHIKL | -1.73
25 | FKCPICGRNFTQKGNLLRHIKL | -0.291

Row | Sequence | log2 fold change of degron read counts
26 | FHCPQCGASFTQKGNLLRHIKL | -1.17
27 | FACNQCGALFTQKGNLLRHIKL | 0.0895
28 | LMCNQCGFRCTQKGNLLRHIKL | 1.22
29 | FECNQCGACFTQKGNLLRHIKL | -1.7
30 | FGCPVCGAAFTQKGNLLRHIKL | 0.0937
31 | FCCNQCGRMFTQKGNLLRHIKL | 0.333
32 | FTCDQCGAGFTQKGNLLRHIKL | -1.46
33 | FTCEICGAHFTQKGNLLRHIKL | -1.29
34 | FVCNICGANFTQKGNLLRHIKL | -0.663
35 | FTCEICGHDFTQKGNLLRHIKL | -2.24
36 | FCCEVCGATFTQKGNLLRHIKL | -0.976
37 | FCCDICGAGFTQKGNLLRHIKL | -0.766
38 | FLCEICGHKFTQKGNLLRHIKL | -1.57
39 | FVCDVCGAEFTQKGNLLRHIKL | -1.83
40 | LACNQCGFNCTQKGNLLRHIKL | 0.727
41 | FQCPICGHKFTQKGNLLRHIKL | -0.444
42 | FTCPICGAKFTQKGNLLRHIKL | -1.43
43 | FVCEICGHMFTQKGNLLRHIKL | -1.75
44 | LCCEICGFECTQKGNLLRHIKL | -1.59
45 | FFCDICGAHFTQKGNLLRHIKL | -0.519
46 | LGCPICGFWCTQKGNLLRHIKL | 1.5
47 | FACNVCGAHFTQKGNLLRHIKL | -0.494
48 | FECDQCGAHFTQKGNLLRHIKL | -2.37
49 | FFCEVCGAQFTQKGNLLRHIKL | -1.68
50 | FECDVCGAMFTQKGNLLRHIKL | -1.95
